The chains are these.
T1: RBFOX1 RRM RbFoxmut (Fox-RRM*) (Homo sapiens, UniProt Q9NWB1 109-208, R118D;E147R;N151S;E152T)
T1 sequence: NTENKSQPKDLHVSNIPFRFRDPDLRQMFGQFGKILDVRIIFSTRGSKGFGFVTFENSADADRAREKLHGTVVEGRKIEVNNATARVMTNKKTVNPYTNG

B1: CCGGUUU (DNA:RNA)
RNA: GGGAGACCGGAAUUCAGAUUGUCCCCGGUUUUUAAAUCCCGUCGUAGCCACCA
DNA 1: CAATCTGAATTCCGGTCTCCC
DNA 2: TGGTGGCTACGACGGGATT
B2: CCAAAUU (DNA:RNA)
RNA: B1 RNA with G27A, G28A, U29A
DNA 1: CAATCTGAATTCCGGTCTCCC
DNA 2: TGGTGGCTACGACGGGATT
B3: GCGUCGU (DNA:RNA)
RNA: B1 RNA with C25G, G28U, U29C, U30G
DNA 1: CAATCTGAATTCCGGTCTCCC
DNA 2: TGGTGGCTACGACGGGATT
B4: ACGUGAC (DNA:RNA)
RNA: B1 RNA with C25A, G28U, U29G, U30A, U31C
DNA 1: CAATCTGAATTCCGGTCTCCC
DNA 2: TGGTGGCTACGACGGGATT
B5: GACAGAC (DNA:RNA)
RNA: GGGAGACCGGAAUUCAGAUUGUCCGACAGACUUAAAUCCCGUCGUAGCCACCA
DNA 1: CAATCTGAATTCCGGTCTCCC
DNA 2: TGGTGGCTACGACGGGATT
B6: AUUUACG (DNA:RNA)
RNA: GGGAGACCGGAAUUCAGAUUGUCCAUUUACGUUAAAUCCCGUCGUAGCCACCA
DNA 1: CAATCTGAATTCCGGTCTCCC
DNA 2: TGGTGGCTACGACGGGATT
B7: UCAAUUU (DNA:RNA)
RNA: B1 RNA with C25U, G27A, G28A
DNA 1: CAATCTGAATTCCGGTCTCCC
DNA 2: TGGTGGCTACGACGGGATT
B8: UAGGUGC (DNA:RNA)
RNA: B1 RNA with C25U, C26A, U30G, U31C
DNA 1: CAATCTGAATTCCGGTCTCCC
DNA 2: TGGTGGCTACGACGGGATT
B9: GGUGGGC (DNA:RNA)
RNA: B5 RNA with A26G, C27U, A28G, A30G
DNA 1: CAATCTGAATTCCGGTCTCCC
DNA 2: TGGTGGCTACGACGGGATT
B10: ACGGACC (DNA:RNA)
RNA: B6 RNA with U26C, U27G, U28G, G31C
DNA 1: CAATCTGAATTCCGGTCTCCC
DNA 2: TGGTGGCTACGACGGGATT
B11: AUUAUCA (DNA:RNA)
RNA: B6 RNA with U28A, A29U, G31A
DNA 1: CAATCTGAATTCCGGTCTCCC
DNA 2: TGGTGGCTACGACGGGATT
B12: CCUAUUA (DNA:RNA)
RNA: B1 RNA with G27U, G28A, U31A
DNA 1: CAATCTGAATTCCGGTCTCCC
DNA 2: TGGTGGCTACGACGGGATT
B13: UUUAGAA (DNA:RNA)
RNA: B5 RNA with G25U, A26U, C27U, C31A
DNA 1: CAATCTGAATTCCGGTCTCCC
DNA 2: TGGTGGCTACGACGGGATT
B14: CAAGCGA (DNA:RNA)
RNA: B1 RNA with C26A, G27A, U29C, U30G, U31A
DNA 1: CAATCTGAATTCCGGTCTCCC
DNA 2: TGGTGGCTACGACGGGATT
B15: UUCUUUU (DNA:RNA)
RNA: B1 RNA with C25U, C26U, G27C, G28U
DNA 1: CAATCTGAATTCCGGTCTCCC
DNA 2: TGGTGGCTACGACGGGATT
B16: CGACUUU (DNA:RNA)
RNA: B1 RNA with C26G, G27A, G28C
DNA 1: CAATCTGAATTCCGGTCTCCC
DNA 2: TGGTGGCTACGACGGGATT
B17: GCCUAAU (DNA:RNA)
RNA: B5 RNA with A26C, A28U, G29A, C31U
DNA 1: CAATCTGAATTCCGGTCTCCC
DNA 2: TGGTGGCTACGACGGGATT
B18: CUCGUAU (DNA:RNA)
RNA: B1 RNA with C26U, G27C, U30A
DNA 1: CAATCTGAATTCCGGTCTCCC
DNA 2: TGGTGGCTACGACGGGATT
B19: AUCCUUU (DNA:RNA)
RNA: B1 RNA with C25A, C26U, G27C, G28C
DNA 1: CAATCTGAATTCCGGTCTCCC
DNA 2: TGGTGGCTACGACGGGATT
B20: GGAGUAU (DNA:RNA)
RNA: B1 RNA with C25G, C26G, G27A, U30A
DNA 1: CAATCTGAATTCCGGTCTCCC
DNA 2: TGGTGGCTACGACGGGATT
B21: CGGCUGG (DNA:RNA)
RNA: B1 RNA with C26G, G28C, U30G, U31G
DNA 1: CAATCTGAATTCCGGTCTCCC
DNA 2: TGGTGGCTACGACGGGATT
B22: UUUGAUU (DNA:RNA)
RNA: B6 RNA with A25U, U28G, C30U, G31U
DNA 1: CAATCTGAATTCCGGTCTCCC
DNA 2: TGGTGGCTACGACGGGATT
B23: CUUGUGA (DNA:RNA)
RNA: B1 RNA with C26U, G27U, U30G, U31A
DNA 1: CAATCTGAATTCCGGTCTCCC
DNA 2: TGGTGGCTACGACGGGATT
B24: CACGGUU (DNA:RNA)
RNA: B1 RNA with C26A, G27C, U29G
DNA 1: CAATCTGAATTCCGGTCTCCC
DNA 2: TGGTGGCTACGACGGGATT
B25: CGUUGGU (DNA:RNA)
RNA: B6 RNA with A25C, U26G, A29G, C30G, G31U
DNA 1: CAATCTGAATTCCGGTCTCCC
DNA 2: TGGTGGCTACGACGGGATT
B26: UGAUUAG (DNA:RNA)
RNA: B6 RNA with A25U, U26G, U27A, A29U, C30A
DNA 1: CAATCTGAATTCCGGTCTCCC
DNA 2: TGGTGGCTACGACGGGATT
B27: GCCACCA (DNA:RNA)
RNA: B5 RNA with A26C, G29C, A30C, C31A
DNA 1: CAATCTGAATTCCGGTCTCCC
DNA 2: TGGTGGCTACGACGGGATT
B28: UCCCCCC (DNA:RNA)
RNA: B5 RNA with G25U, A26C, A28C, G29C, A30C
DNA 1: CAATCTGAATTCCGGTCTCCC
DNA 2: TGGTGGCTACGACGGGATT
B29: CCUCACU (DNA:RNA)
RNA: B6 RNA with A25C, U26C, U28C, G31U
DNA 1: CAATCTGAATTCCGGTCTCCC
DNA 2: TGGTGGCTACGACGGGATT
B30: GGGACGU (DNA:RNA)
RNA: B1 RNA with C25G, C26G, G28A, U29C, U30G
DNA 1: CAATCTGAATTCCGGTCTCCC
DNA 2: TGGTGGCTACGACGGGATT
B31: UACUAGU (DNA:RNA)
RNA: B6 RNA with A25U, U26A, U27C, C30G, G31U
DNA 1: CAATCTGAATTCCGGTCTCCC
DNA 2: TGGTGGCTACGACGGGATT

Residue numbers refer to the chain shown, from its start. The list shows a part of the results.

For the assay, the target named is T1, RBFOX1 RRM RbFoxmut (Fox-RRM*). Kind of assay: EMSA; HiTS-Eq, 1 nM pool, 10 min; buffer printed only for the single-RNA assays: 10 mM Tris pH 7.5, 150 mM NaCl, 3.4 mM EDTA, 0.001% NP-40, 30 C. The conditions noted are these: tags: His6 N-terminal (pET28a); label: 5' 32P. In a few lines:
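These values rest on relative association constants, computed from read-count changes of each RNA species versus the control reaction and normalised to the cognate motif. Reads came from free RNA recovered by 8% native PAGE after purified RbFox RRM (wild type or mutant) at increasing concentrations was equilibrated for 10 min in 50 µL with 1 nM of a 5′-radiolabelled pool with 7 randomized nucleotides and DNA-annealed flanks.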
(In general: Mobility shift assays separate free from complexed probe on a gel.)
In the case of B1, the binding signal was 0.0689 KA relative to UGCAUGU.

B2: the binding signal was 0.0728 KA relative to UGCAUGU.

With B3, the binding signal was 0.129 KA relative to UGCAUGU.

Regarding B4, the binding signal is 0.0726 KA relative to UGCAUGU.

Turning to B5, the binding signal was 0.0575 KA relative to UGCAUGU.

B6: the binding signal was 0.161 KA relative to UGCAUGU.

In the case of B7, the binding signal was 0.079 KA relative to UGCAUGU.

Turning to B8, the binding signal was 0.104 KA relative to UGCAUGU.

B9: the binding signal was 0.0553 KA relative to UGCAUGU.

For B10, the binding signal was 0.0736 KA relative to UGCAUGU.

B11: the binding signal is 0.114 KA relative to UGCAUGU.

With B12, the binding signal was 0.0858 KA relative to UGCAUGU.

For B13, the binding signal is 0.125 KA relative to UGCAUGU.

For B14, the binding signal is 0.0665 KA relative to UGCAUGU.

For the molecule B15, the binding signal is 0.0804 KA relative to UGCAUGU.

For B16, the binding signal is 0.058 KA relative to UGCAUGU.

In the case of B17, the binding signal is 0.0862 KA relative to UGCAUGU.

B18: the binding signal is 0.122 KA relative to UGCAUGU.

Turning to B19, the binding signal was 0.109 KA relative to UGCAUGU.

As for B20, the binding signal is 0.114 KA relative to UGCAUGU.

For the molecule B21, the binding signal is 0.123 KA relative to UGCAUGU.

On to B22, for which the binding signal was 0.0999 KA relative to UGCAUGU.

On to B23, for which the binding signal was 0.108 KA relative to UGCAUGU.

B24: the binding signal is 0.0946 KA relative to UGCAUGU.

As for B25, the binding signal is 0.168 KA relative to UGCAUGU.

As to B26, the binding signal is 0.116 KA relative to UGCAUGU.

As for B27, the binding signal is 0.0652 KA relative to UGCAUGU.

For B28, the binding signal is 0.0392 KA relative to UGCAUGU.

B29: the binding signal is 0.0967 KA relative to UGCAUGU.

In the case of B30, the binding signal was 0.162 KA relative to UGCAUGU.

As to B31, the binding signal was 0.0635 KA relative to UGCAUGU.

Source of the values: PMC9911399, “Two distinct binding modes provide the RNA-binding protein RbFox with extraordinary sequence specificity”.
